In patent publication US20240317727A1 (Duke University, priority 2018, published 2024):

Test system: NCI-H322M
Assay: cells
Settings: Non-Small Cell Lung Cancer, two days
Description: HSF1 binding compounds were tested for its activity in suppressing the growth of a broad range of cancer types. For example, Compound 0017 was incubated for two days with a diverse series of cancer cell lines in the NCI60 collection and cell growth and viability were measured, and the results are shown in Table 4.

O=C(Nc1ccc(F)cc1)Nc1ccc(Cl)c([N+](=O)[O-])c1 [Compound 0017, 1-(4-chloro-3-nitrophenyl)-3-(4-fluorophenyl)urea]
GI50 (Homo sapiens, 48 h, read-out: log10 [GI50 (M)] (converted)): 3.31e-06 M
CC50 (Homo sapiens, 48 h, read-out: log10 [LC50 (M)] (converted)): 5.25e-05 M
log10 [TGI (M)]: −4.92 log10 M
